About 14,000 (4.5%) of roughly 310,000 compounds showed an effect of 50% or more. The effect is printed as a negative number. The list shows a part of the results.
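Note: peak tail current of the secondary pulse compared with the same well before compound.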

This assay deals with human ether-à-go-go-related gene (hERG) potassium channel (human, UniProt Q12809). Description: primary screen, population patch clamp on CHO cells stably expressing hERG.
Chain of human ether-à-go-go-related gene (hERG) potassium channel (Q12809 whole entry, looked up): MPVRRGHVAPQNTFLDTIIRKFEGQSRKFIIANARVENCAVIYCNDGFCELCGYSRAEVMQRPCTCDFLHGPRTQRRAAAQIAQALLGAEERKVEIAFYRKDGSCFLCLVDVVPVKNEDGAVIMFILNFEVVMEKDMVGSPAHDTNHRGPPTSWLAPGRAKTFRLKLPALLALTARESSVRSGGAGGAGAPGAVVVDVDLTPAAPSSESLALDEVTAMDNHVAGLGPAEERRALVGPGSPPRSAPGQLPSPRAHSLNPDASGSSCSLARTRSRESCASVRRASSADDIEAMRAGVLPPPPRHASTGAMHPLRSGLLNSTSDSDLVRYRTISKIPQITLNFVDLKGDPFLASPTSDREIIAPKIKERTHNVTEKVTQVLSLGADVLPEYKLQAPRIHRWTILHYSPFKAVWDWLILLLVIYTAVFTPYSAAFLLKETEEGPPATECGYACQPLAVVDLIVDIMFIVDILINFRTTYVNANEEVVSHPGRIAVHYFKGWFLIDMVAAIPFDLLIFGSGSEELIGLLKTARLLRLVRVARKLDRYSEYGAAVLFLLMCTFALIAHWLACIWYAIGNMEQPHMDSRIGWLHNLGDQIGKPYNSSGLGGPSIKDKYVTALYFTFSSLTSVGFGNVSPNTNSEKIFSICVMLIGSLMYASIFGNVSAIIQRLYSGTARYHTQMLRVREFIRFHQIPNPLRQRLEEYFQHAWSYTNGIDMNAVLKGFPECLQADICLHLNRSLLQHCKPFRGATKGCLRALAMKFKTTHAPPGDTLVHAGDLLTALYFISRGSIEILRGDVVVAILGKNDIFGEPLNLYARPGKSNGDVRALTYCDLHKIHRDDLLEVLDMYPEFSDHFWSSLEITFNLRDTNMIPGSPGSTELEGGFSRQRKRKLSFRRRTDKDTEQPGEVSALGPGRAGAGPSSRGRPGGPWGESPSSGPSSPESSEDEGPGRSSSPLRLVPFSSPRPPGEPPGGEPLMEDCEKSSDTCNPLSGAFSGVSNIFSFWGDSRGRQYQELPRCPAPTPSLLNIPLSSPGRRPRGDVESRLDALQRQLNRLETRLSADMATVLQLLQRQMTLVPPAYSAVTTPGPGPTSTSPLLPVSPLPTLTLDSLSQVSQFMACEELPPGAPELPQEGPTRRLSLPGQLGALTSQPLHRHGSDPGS
As to `CC(NC(=O)c1cc(-c2cccs2)on1)c1ccccc1` (centres unmarked), the “hERG current change (%, negative = inhibition) at 10uM” value is 16%.
With `CC1(C)CC(=O)C(C=NCC2CCN(C(=S)Nc3cccc(Cl)c3)CC2)=C(O)C1`, the “hERG current change (%, negative = inhibition) at 10uM” value was -62.4%.
Under `Cn1c(=O)n(C)c2cc(NC(=O)CCc3ccccc3)c(Br)cc21` stands 11.2%.
For `O=C(COC(=O)c1ccc2c(c1)OCO2)NCc1ccc(Cl)cc1`, the “hERG current change (%, negative = inhibition) at 10uM” value is 1.69%.
For the compound `CCCCNC(=S)Nc1ccc2[nH]c(=O)[nH]c2c1`, the “hERG current change (%, negative = inhibition) at 10uM” value is 16.4%.
The value for `Cc1c(C(=O)Nc2ccc(C(=O)Nc3ccccc3)cc2)cccc1[N+](=O)[O-]` was 26.7%; that for `COc1ccc(-n2c(Cc3cccn3C)nnc2SCC(=O)Nc2cc(C)cc(C)c2)cc1` was -52.4%.
As for `COc1ccccc1S(=O)Cc1ccc(C(=O)NCCc2ccc(Cl)cc2)o1` (centres unmarked), the “hERG current change (%, negative = inhibition) at 10uM” value is given as -65.4%.
The value for `CN1CCN(Cc2cc(=O)oc3cc4c(cc23)CCC4)CC1` was -8.2%; that for `CCn1c(SCC(=O)N/N=C/C=C/c2ccccc2[N+](=O)[O-])nnc1-c1ccccc1` was -36.6%; that for `CCOC(=O)C(=O)Nc1ccccc1C(N)=O` was -16.3%.
Turning to `COc1ccc(CCn2c(O)c(C=Nc3ccc(F)cc3)c(=O)[nH]c2=O)cc1OC`, the “hERG current change (%, negative = inhibition) at 10uM” value came out at 2.45%.
The value for `CCN1CCN(c2ccc(S(=O)(=O)N3CCCCC3)cc2NC(=O)C(C)Oc2ccc(F)cc2)CC1` (centres unmarked) was -72.7%; that for `OCCC1CN(Cc2nc(-c3ccccc3)cs2)CCN1CCc1ccccc1` (centres unmarked) was -77.8%; that for `O=C(CN1CCC(NC(=O)Nc2ccccc2)CC1)Nc1ccccc1F` was -18.3%.
The value for `Cc1ccccc1S(=O)(=O)Cc1ccc(C(=O)NC(C)c2ccccc2)o1` (centres unmarked) was -3.26%; that for `COc1cccc(OC)c1C(=O)Nc1nc(-c2ccccc2)cs1` was 4.14%; that for `CCS(=O)(=O)C1=NN2C(=N)/C(=C\c3ccc(OC(=O)c4ccco4)c(Br)c3)C(=O)N=C2S1` was 11.7%.
For the compound `Cc1cc(C)n2nc(C(=O)OCC(=O)c3ccc(F)cc3)nc2n1`, the “hERG current change (%, negative = inhibition) at 10uM” value is -3.27%.
The value for `O=C(NCc1ccccn1)C1CCN(S(=O)(=O)c2cccs2)CC1` was -15.8%; that for `Cc1ccccc1NC(=O)OCCN1CCN(Cc2ccccc2)CCC1=O` was -5.9%; that for `CCN(CC)C(=O)c1cc(-c2ccccc2OC)on1` was -4.66%.
Take `CCc1cccc(CC)c1NC(=S)/C(=C(\[O-])c1ccc(Cl)s1)[n+]1ccccc1`: the “hERG current change (%, negative = inhibition) at 10uM” value is -10.1%.
Regarding `Clc1ccc(Cc2nc(-c3ccncc3)no2)cc1`, the “hERG current change (%, negative = inhibition) at 10uM” value is reported as -9.82%.
As to `COc1cc(/C=C(\C#N)C(=O)Nc2ccc(C(=O)O)cc2)ccc1OC(=O)c1cccc(F)c1`, the “hERG current change (%, negative = inhibition) at 10uM” value is reported as 11.1%.
Under `O=C1COc2ccc(C(=O)CSc3nnc(-c4cccs4)n3Cc3ccccc3)cc2N1` stands -27%; under `COc1ccc(-c2csc3nc(-c4ccccc4F)oc(=O)c23)cc1`, 11%.
On to `CC(=O)Nc1ccc2nc(-c3ccc(Br)o3)[nH]c2c1`, for which the “hERG current change (%, negative = inhibition) at 10uM” value is listed as -14%.
Consider `CCCN(CC(=O)Nc1ccccc1OC)C(=O)C1CCCC1`, for which the “hERG current change (%, negative = inhibition) at 10uM” value is given as -4.11%.
The value for `CCCCCCn1c(N2CCN(c3ccccc3)CC2)nc2c1c(=O)[nH]c(=O)n2C` was -32.6%.
For `CCOC(=O)CSc1nnc(CNc2ccc(Cl)cc2)n1-c1ccccc1`, the “hERG current change (%, negative = inhibition) at 10uM” value came out at 11.2%.
`CC(=O)c1sc(NC(=O)c2cccc3ccccc23)nc1C`: the “hERG current change (%, negative = inhibition) at 10uM” value was 8.53%.
Under `Cc1ccc(NC(=O)Nc2cc(Cl)ccc2C2COC(=O)C2=N)cc1` (centres unmarked) stands 27.9%.
In the case of `Cc1nc(-c2ccc(S(=O)(=O)N3CCOCC3)cc2)cs1`, the “hERG current change (%, negative = inhibition) at 10uM” value is listed as 12.8%.
For the compound `CC1c2cc3c(cc2CCN1S(=O)(=O)c1ccccc1)OCCCO3` (centres unmarked), the “hERG current change (%, negative = inhibition) at 10uM” value was -20%.
The value for `CCc1c(C(=O)Nc2ccc(OC)c(Cl)c2)[nH]c(C)c1C(C)=O` was -0.65%; that for `Cc1ccc(NS(=O)(=O)c2ccc3c(c2)NC(=O)C(C)C(=O)N3)cc1C` (centres unmarked) was 2.46%; that for `Nc1ncnc(Sc2ccccc2)c1[N+](=O)[O-]` was 8.7%.
Under `Cc1cc(NC(=O)CSc2ccnc(=O)[nH]2)no1` stands -0.802%; under `COc1ccc(-c2nn3c(-c4ccccc4)nnc3s2)cc1`, 10.7%; under `CCc1ccc(-c2cc(C)no2)cc1S(=O)(=O)N1CCN(c2ccccc2)CC1`, 3.41%.
Under `COC(=O)c1cccc(NC(=O)CSCc2ccccc2)c1` stands 12.1%.
Turning to `COc1ccccc1NS(=O)(=O)c1ccc(NC(=O)c2ccncc2)cc1`, the “hERG current change (%, negative = inhibition) at 10uM” value was -22.1%.
Turning to `CCCNc1c(NS(=O)(=O)c2cccs2)c(=O)oc2ccccc12`, the “hERG current change (%, negative = inhibition) at 10uM” value is -24.6%.
The value for `COc1cccc2cc3c(=O)oc4ccccc4c3nc12` was -5.61%; that for `CN1C(=O)C(O)(CC(=O)/C=C/c2ccco2)c2cc(Br)ccc21` (centres unmarked) was -14.4%.
As to `CCOc1cc(C=O)c(Br)cc1OC1CCCC1`, the “hERG current change (%, negative = inhibition) at 10uM” value is on record as 11.3%.
The value for `Cc1cc(CNC(=O)CC2C(=O)NCCN2Cc2ccccc2)nn1C` (centres unmarked) was 13.8%; that for `COc1ccccc1N1CCN(Cc2cn[nH]c2-c2ccc(F)cc2)CC1` was -55.3%.
`Cc1cccc(N2CC(C(=O)OCc3ccc([N+](=O)[O-])cc3)CC2=O)c1` (centres unmarked): the “hERG current change (%, negative = inhibition) at 10uM” value is on record as -64%.
Turning to `COc1ccc(N2C(=O)CCC(C(=O)N3CCOCC3)C2c2ccc(F)cc2)cc1` (centres unmarked), the “hERG current change (%, negative = inhibition) at 10uM” value is listed as 0.595%.
Take `Cc1ccn2c(CN(C)CCn3nc(C)cc3C)c(C(=O)N3CCCCCC3)nc2c1`: the “hERG current change (%, negative = inhibition) at 10uM” value is recorded as 4.86%.
The value for `COc1ccc(NC(=O)c2ccc3c(c2)NC(=O)CS3)cc1` was 17.1%.
Consider `Nc1ccc(Oc2c(Cl)cccc2Cl)nc1`, for which the “hERG current change (%, negative = inhibition) at 10uM” value was -9.23%.
In the case of `COc1ccc(C)cc1S(=O)(=O)n1c([N+](=O)[O-])cnc1C`, the “hERG current change (%, negative = inhibition) at 10uM” value stood at 6.2%.
As to `CC(=O)N1CCN(C(=O)C(Cc2c[nH]c3ccccc23)NC(=O)c2ccccc2Cl)CC1` (centres unmarked), the “hERG current change (%, negative = inhibition) at 10uM” value is on record as 19.1%.
